Results published in a collection of fitness landscapes (doi:10.1016/j.celrep.2020.107928).
The full ranking holds about 81,000 sequences; the median of “one-hybrid fitness for binding NBS DNA” is about -0.1, and the highest 2% start at about 0.36. Some of the results follow.

B1: Caulobacter ParB omega fusion; a variant is named by its letters at X, in order, B8GW30 (parent)
chain: MESVVVGEPGMSEGRRGLGRGLSALLGEVDAAPAQAPGEQLGGSREAPIEILQRNPDQPRRTFREEDLEDLSNSIREKGVLQPILVRPSPDTAGEYQIVAGERAWRAAQRAGLKTVPIMVRELDDLAVLEIGIIENVQRADLNVLEEALSYKVLMEKFERTQENIAQTIGKSXSHVANXMRLLXLPDEVQSYLVSGELTAXHARAIAAAADPVALAKQIIEGGLSVRETEALARKAPNLSAGKSKGGRPPRVKDTDTQALESDLSSVLGLDVSIDHRGSTGTLTITYATLEQLDDLCNRLTRGI

Variants of: B1
Experiment: one-hybrid fitness for binding NBS DNA (the Noc-binding site; scaled: cognate 1, non-cognate 0); higher = stronger binding
Details: with NBS DNA site
Outline: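 In E. coli USO, a HIS3 reporter with its site placed 19 bp from the promoter was used to select Caulobacter ParB variants randomised at four specificity codons. Growth lasted 48 hours at 37°C on histidine-free M9 containing 0.1 mM IPTG and 5 mM 3-AT. Fitness was taken as the log change in variant-to-wild-type read ratio from Illumina sequencing of pre- and post-selection plasmids, rescaled between the non-cognate and cognate sites.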

Variant | one-hybrid fitness for binding NBS DNA
YDYN | ≤ 0.2
HTPQ | ≤ 0.2
NFSC | ≤ 0.2
ADHT | ≤ 0.2
EQDL | ≤ 0.2
VNES | ≤ 0.2
VSEL | ≤ 0.2
NQKS | ≤ 0.2
RICT | 0.323
SLLN | ≤ 0.2
SQLP | ≤ 0.2
LGFR | ≤ 0.2
CQLW | ≤ 0.2
TYGR | ≤ 0.2
FRQA | ≤ 0.2
QRVY | 0.344
KYQT | ≤ 0.2
SNDV | ≤ 0.2
RAGH | ≤ 0.2
TDHR | ≤ 0.2
KCRC | ≤ 0.2
FSHG | ≤ 0.2
AWPA | ≤ 0.2
CGRH | ≤ 0.2

Variant | one-hybrid fitness for binding NBS DNA
ETGK | ≤ 0.2
NGSW | ≤ 0.2
QTEA | 0.225
RNDW | ≤ 0.2
PIFG | ≤ 0.2
LIPT | ≤ 0.2
PTMC | ≤ 0.2
ITNF | ≤ 0.2
QDWS | ≤ 0.2
GNDG | ≤ 0.2
IMDL | ≤ 0.2
QDVC | ≤ 0.2
NDDG | ≤ 0.2
EMMT | ≤ 0.2
RYCA | ≤ 0.2
MKMG | ≤ 0.2
QCQR | 0.612
GKFE | ≤ 0.2
YWKM | ≤ 0.2
ERKF | ≤ 0.2
GTFR | ≤ 0.2
VSMC | ≤ 0.2
GLLF | ≤ 0.2
RPGD | ≤ 0.2

Variant | one-hybrid fitness for binding NBS DNA
RWSM | ≤ 0.2
ASWT | ≤ 0.2
KTPV | ≤ 0.2
ISHA | ≤ 0.2
TGCW | ≤ 0.2
HQRG | ≤ 0.2
DQAF | ≤ 0.2
RFDS | ≤ 0.2
FDKS | ≤ 0.2
AMPA | ≤ 0.2
CKYK | ≤ 0.2
MTVS | ≤ 0.2
DIVI | ≤ 0.2
QVPC | ≤ 0.2
GHSG | ≤ 0.2
SKRG | ≤ 0.2
PSNG | ≤ 0.2
SIPR | ≤ 0.2
MRAH | ≤ 0.2
AMGV | ≤ 0.2
IEHC | ≤ 0.2
PAHQ | ≤ 0.2
RYEE | ≤ 0.2
QITD | ≤ 0.2

Variant | one-hybrid fitness for binding NBS DNA
LHRC | ≤ 0.2
QPPP | ≤ 0.2
AETC | ≤ 0.2
NMSL | ≤ 0.2
NFDC | ≤ 0.2
PNVF | ≤ 0.2
KTCT | ≤ 0.2
DKFS | ≤ 0.2
YSHT | ≤ 0.2
DSTT | ≤ 0.2
STKW | ≤ 0.2
RYHE | ≤ 0.2
ALNQ | ≤ 0.2
VVHR | ≤ 0.2
FSNS | ≤ 0.2
RFFA | ≤ 0.2
TLPT | ≤ 0.2
RKYE | ≤ 0.2
HAGR | ≤ 0.2
SPNS | ≤ 0.2
TERR | ≤ 0.2
QRLE | 0.209
FASQ | ≤ 0.2
TIKM | ≤ 0.2

Variant | one-hybrid fitness for binding NBS DNA
DQER | ≤ 0.2
LSMY | ≤ 0.2
QKNP | ≤ 0.2
DMCS | ≤ 0.2
ISPG | ≤ 0.2
YPKS | ≤ 0.2
RTWR | 0.404
RHAI | ≤ 0.2
SAKM | ≤ 0.2
CNYS | ≤ 0.2
GSVT | ≤ 0.2
IPNV | ≤ 0.2
HQLV | ≤ 0.2
VHLM | ≤ 0.2
LRPH | ≤ 0.2
DGDG | ≤ 0.2
NSLV | ≤ 0.2
TVDI | ≤ 0.2
QIMK | ≤ 0.2
VATW | ≤ 0.2
SMTE | ≤ 0.2
YNRL | ≤ 0.2
DEHR | ≤ 0.2
KSRT | ≤ 0.2

Variant | one-hybrid fitness for binding NBS DNA
RYMV | ≤ 0.2
PCDW | ≤ 0.2
QMCI | ≤ 0.2
QQKQ | 0.493
THGY | ≤ 0.2
TATP | ≤ 0.2
ACMC | ≤ 0.2
VWCS | ≤ 0.2
VRSN | ≤ 0.2
VCLG | ≤ 0.2
MHAC | ≤ 0.2
YFRS | ≤ 0.2
VDVC | ≤ 0.2
LARC | ≤ 0.2
MRRR | 0.286
QCTC | ≤ 0.2
RHWA | ≤ 0.2
THQG | ≤ 0.2
MAYW | ≤ 0.2
STPY | ≤ 0.2
SWNW | ≤ 0.2
WAKY | ≤ 0.2
KTTW | ≤ 0.2
GGLC | ≤ 0.2

Variant | one-hybrid fitness for binding NBS DNA
KSCV | ≤ 0.2
IRKR | 0.67
YYRT | ≤ 0.2
MNLC | ≤ 0.2
CRYC | ≤ 0.2
PTHM | ≤ 0.2
VMMS | ≤ 0.2
FTYC | ≤ 0.2
KVHI | ≤ 0.2
KMAR | 0.299
PYCH | ≤ 0.2
ATRW | ≤ 0.2
TECT | ≤ 0.2
PPYM | ≤ 0.2
AIAR | ≤ 0.2
QFYR | ≤ 0.2
TKDD | ≤ 0.2
GPAH | ≤ 0.2
SPGS | ≤ 0.2
PHLH | ≤ 0.2
GAFS | ≤ 0.2
TIYS | ≤ 0.2
WNES | ≤ 0.2
EAMF | ≤ 0.2

Variant | one-hybrid fitness for binding NBS DNA
WQCW | ≤ 0.2
NIKS | ≤ 0.2
GDMS | ≤ 0.2
QRWN | ≤ 0.2
YCNT | ≤ 0.2
PEAK | ≤ 0.2
DPCA | ≤ 0.2
HYCC | ≤ 0.2
EKNC | ≤ 0.2
LYMR | ≤ 0.2
PRDV | ≤ 0.2
NVHP | ≤ 0.2
TTGC | ≤ 0.2
ECIG | ≤ 0.2
CQRR | ≤ 0.2
RRIF | ≤ 0.2
DKRC | ≤ 0.2
SACT | ≤ 0.2
KSYS | ≤ 0.2
YMCL | ≤ 0.2
FPSH | ≤ 0.2
CSSM | ≤ 0.2
ILQK | ≤ 0.2
NTVA | ≤ 0.2

Variant | one-hybrid fitness for binding NBS DNA
EIDN | ≤ 0.2
SILD | ≤ 0.2
QLGT | 0.369
PRFV | ≤ 0.2
ASES | ≤ 0.2
MMNC | ≤ 0.2
TDRR | ≤ 0.2
RFPR | ≤ 0.2
SNVS | ≤ 0.2
LNNA | ≤ 0.2
HLQW | ≤ 0.2
QYAV | ≤ 0.2
AICA | ≤ 0.2
HILT | ≤ 0.2
GAQA | ≤ 0.2
ARAH | ≤ 0.2
DAIS | ≤ 0.2
EDSW | ≤ 0.2
RLVI | ≤ 0.2
WPIG | ≤ 0.2
DTSW | ≤ 0.2
VPWF | ≤ 0.2
DSYP | ≤ 0.2
AVQF | ≤ 0.2

Variant | one-hybrid fitness for binding NBS DNA
QESA | ≤ 0.2
GYVT | ≤ 0.2
KTSY | ≤ 0.2
RSDW | ≤ 0.2
VWCG | ≤ 0.2
MSVV | ≤ 0.2
EYYR | ≤ 0.2
KNKL | ≤ 0.2
VYNY | ≤ 0.2
DMNF | ≤ 0.2
DQKY | ≤ 0.2
RMYE | ≤ 0.2
RHYD | ≤ 0.2
VQWT | ≤ 0.2
TNTS | ≤ 0.2
CNIL | ≤ 0.2
VASQ | ≤ 0.2
QRPG | ≤ 0.2
RRAC | 0.328
LKKV | ≤ 0.2
TTNG | ≤ 0.2
HASA | ≤ 0.2
IGKL | ≤ 0.2
YDIE | ≤ 0.2

Variant | one-hybrid fitness for binding NBS DNA
YQYS | ≤ 0.2
RQSD | ≤ 0.2
MVRG | ≤ 0.2
GIPH | ≤ 0.2
WICS | ≤ 0.2
MKST | ≤ 0.2
KSFA | ≤ 0.2
HAKI | ≤ 0.2
IPIK | ≤ 0.2
YGEL | ≤ 0.2
MSAM | ≤ 0.2
VANH | ≤ 0.2
LFHF | ≤ 0.2
ATKL | ≤ 0.2
RFAT | ≤ 0.2
FTIM | ≤ 0.2
TPAR | ≤ 0.2
RRWP | ≤ 0.2
HNFG | ≤ 0.2
EHRG | ≤ 0.2
YIAC | ≤ 0.2
SMSV | ≤ 0.2
HNQP | ≤ 0.2
AYHR | ≤ 0.2

Variant | one-hybrid fitness for binding NBS DNA
TGKS | ≤ 0.2
AQLL | ≤ 0.2
YLVS | ≤ 0.2
YVVV | ≤ 0.2
TKLS | ≤ 0.2
PRDW | ≤ 0.2
RKYQ | 0.205
HIKS | ≤ 0.2
NTIL | ≤ 0.2
FHNL | ≤ 0.2
LKPT | ≤ 0.2
HYSA | ≤ 0.2
QIAT | 0.28
NILT | ≤ 0.2
TVPI | ≤ 0.2
NHTT | ≤ 0.2
LIIY | ≤ 0.2
GFKR | ≤ 0.2
VWVG | ≤ 0.2
KAIG | ≤ 0.2
NWTE | ≤ 0.2
PGVI | ≤ 0.2
VARA | ≤ 0.2
PYRF | ≤ 0.2

Variant | one-hybrid fitness for binding NBS DNA
VARG | ≤ 0.2
GLQL | ≤ 0.2
VCNS | ≤ 0.2
NLGN | ≤ 0.2
REFM | ≤ 0.2
FIST | ≤ 0.2
ISID | ≤ 0.2
NVQA | ≤ 0.2
GPVV | ≤ 0.2
RQFR | 0.262
TMLW | ≤ 0.2
ICDW | ≤ 0.2
HQVE | ≤ 0.2
KYTT | ≤ 0.2
DDET | ≤ 0.2
TCRT | ≤ 0.2
ISET | ≤ 0.2
TVSH | ≤ 0.2
